Laboratory results reported in PubChem BioAssay AID1347073 (National Center for Advancing Translational Sciences (NCATS), 2019).
The campaign covered roughly 45,000 compounds. About 200 (0.44%) were called active. Not shown: some 7% with an inconclusive outcome. Calls come from the whole dose curve; as a rule, active = well fitted activation curve with a large enough effect; inconclusive = small, poorly fitted or top-dose-only effect; inactive = no such curve, though single readings can be large or run the other way. This is one part of the list.

experiment: qHTS of TDP-43 Inhibitors: NCGC Sytravon Library Screen; conditions: yeast TDP-43 toxicity rescue, BacTiter-Glo growth, 24 h; series mostly up to 46.1 µM; growth rescue (activation): at the top concentration; note: 0% is about no effect; nearly all actives have a fitted effect of over 55% in size
In short: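 TDP-43-expressing yeast, pregrown in raffinose, seeded at OD600 0.02 in galactose medium with compound for 24 hr at 30 deg C. Growth read by BacTiter-Glo luminescence, so rescue of toxicity appears as activation.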

SMILES | growth rescue (activation)
O=c1[nH]c2ccccc2cc1CN(CC1CCCO1)S(=O)(=O)c1ccccc1 (stereo not given) | inactive: 8.38%
Cc1cccn2cc(-c3ccc(Cl)cc3)nc12 | inactive: 20.9%
Cc1ccc(-c2n[nH]c(=S)n2/N=C/c2sccc2C)cc1 | inactive: 17.1%
CCOC(=O)C1(CCOc2ccccc2)CCN(Cc2cccc(-n3cccn3)c2)CC1 | inactive: 8.66%
CC(=O)c1ccc(Oc2cc(C)nc(N3CCOCC3)n2)cc1 | inactive: -11.2%
CN(CC(=O)NC1CCCCCC1)S(=O)(=O)c1ccc(Br)cc1 | inactive: 0.431%
O=C(O)CC/C(=N/NC(=O)CNC(=O)c1ccc2c(c1)OCCO2)c1ccccc1 | inactive: 16.4%
O=C(Nc1cccc(NC(=O)c2sc3ccccc3c2Cl)c1)c1ccco1 | inactive: -1.97%
O=C(Nc1ccc(F)cc1)c1nc[nH]c1C(=O)Nc1ccc([N+](=O)[O-])cc1 | inactive: 13.7%
COCCNC(=O)C(=O)N/N=C(\C)CC(=O)Nc1cccc(C(F)(F)F)c1 | inactive: 13.6%
O=C(OCC(=O)N1CCCC1=O)c1cc2ccccc2o1 | inactive: 1.63%
CSc1ccc(C=NNc2ccc(S(=O)(=O)Nc3ccccc3C(=O)O)cc2[N+](=O)[O-])cc1 | inactive: 10.5%
COC(=O)c1nonc1NCn1nnc2ccccc21 | inactive: 3.34%
COc1ccc(C(C(=O)NC2CCCC2)N(CCC(C)C)C(=O)CCC(=O)Nc2cc(C)on2)cc1 (stereo not given) | inactive: -2.17%
Cc1cc2c(ncn2C)c(NS(=O)(=O)c2ccc(F)cc2)c1C | inactive: -0.896%
CCOC(=O)c1ccc(S(=O)(=O)NNC(=O)COc2ccccc2C)cc1 | inactive: 18.1%
COc1cccc(/C=N/Nc2ncc(C(F)(F)F)cc2Cl)c1O | inactive: -80.8%
Cc1c(Cl)cccc1NC(=O)CSc1nnc(C)n1CC1CCCO1 (stereo not given) | inactive: 1.03%
COc1ccc(CN2CCOCCOCCOCCOCC2)cc1 | inactive: 5.67%
CC(=O)c1cc(C#N)c(N(C)Cc2ccccc2)nc1C | inactive: 9.67%
Cc1cc(O)c(C(=O)/C=C/c2cccc([N+](=O)[O-])c2)c(=O)o1 | inactive: -2.17%
N#Cc1nc(/C=C/c2ccc(F)cc2)oc1NC1CCCCC1 | inactive: 10.9%
O=C(Cn1nnc(-c2ccccc2F)n1)Nc1ccc2c(c1)OCCO2 | inactive: 13.1%
O=C(Cn1cc(COc2ccc3ccccc3c2)nn1)NS(=O)(=O)c1cccc(OC(F)F)c1 | inactive: 20.4%
CCn1c(SCC(=O)NC2CCCC2)nnc1-c1cccnc1 | inactive: 6.49%
Cc1cc(NC(=O)CSc2nnnn2-c2cc(Cl)ccc2C)no1 | inactive: 11.8%
Cc1c(Cl)cnc(NC(=O)CSc2nncs2)c1Cl | inactive: 0.161%
Cc1ccc(S(=O)(=O)Nc2ccc(Nc3nccn4c(-c5ccc6ccccc6c5)cnc34)cc2)cc1 | inactive: 23.7%
Cc1cc(C)cc(NC(=O)CN2CCC(C(=O)c3ccccc3)CC2)c1 | inactive: 4.39%
Cc1ccc(NCc2cccn2-c2nnc(N3CCC(C(=O)NCc4ccc(F)cc4)CC3)s2)cc1 | inactive: -8.7%
